In PubChem BioAssay AID445 (National Center for Advancing Translational Sciences (NCATS), 2006):
The whole screen tested about 110,000 compounds, of which about 40 (0.04%) were called active. The inconclusive results got no clear call from the source; some entries with a clear call stand among them for comparison. The call rests on the fitted dose curve; in most records, active means well fitted curve in the direction sought with a large enough effect in the signal ratio (not every such curve was filed as active); inconclusive means small, poorly fitted or top-dose-only effect, or a change in a side signal; inactive means flat fitted curve, though single readings scatter; the % refers to the signal ratio. Potencies of inconclusive entries are doubtful fits and often do not repeat.
Potency means the concentration at half of the fitted maximal effect.

Assay: IkB Signaling;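 on IkBa stabilization activation: 0% = basal untreated cells and 100% = reference inhibitor full response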
Conditions: ABC-DLBCL IkBa-CBG/CBR dual luciferase ratio (green luciferase fused to IkBa over red control in OCI-Ly3 lymphoma cells), 4 h; IkBa stabilization activation: at 57.1 µM (top of the series), scaled: untreated 0%, proteasome inhibitor 100% unless noted
Outline: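 Luminescence ratio of IκBα-fused green versus native red beetle luciferase in OCI-Ly3 cells, 4 h post-doxycycline with compound; red signal alone, scaled from basal (0%) to zero light (-100%), flagged nonspecific or cytotoxic effects.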
With CCc1nnc(NC(=O)CSc2nccn2Cc2ccccc2)s1 the IkBa stabilization activation was inconclusive: -1.55% [signal inhibitor].
With O=C1CCCc2cc(S(=O)(=O)N3CCCC(C(=O)NCc4ccccc4Cl)C3)ccc2N1 (configuration not stated) the IkBa stabilization activation was inconclusive: -0.583% [signal inhibitor].
In the case of O=C(CSc1nc(-c2ccco2)nc2cc(=O)[nH]n12)Nc1ccc(F)cc1, the IkBa stabilization activation is reported as inconclusive: -0.0451% [signal inhibitor].
With CCN(C1CCCCC1)S(=O)(=O)c1cn(C)c(=O)n(C)c1=O the IkBa stabilization activation was “inactive”.
With COc1ccccc1NC(=O)C1=C(C)Nc2nnnn2C1c1cc(Br)ccc1OC (configuration not stated) the IkBa stabilization activation was inconclusive: 6.24% [signal inhibitor].
In the case of COc1ccc(C2CC(=O)Nc3cc4c(cc32)OCO4)c(OC)c1 (configuration not stated), the IkBa stabilization activation is reported as inconclusive: 0.849% [signal inhibitor].
With NS(=O)(=O)c1cccc2cccnc12 the IkBa stabilization activation was “inactive”.
For Cc1nc2nc(COc3ccccc3)[nH]n2c(=O)c1C, the Potency was inconclusive: 25.1 µM [signal inhibitor, partial curve].
With Cc1ccccc1OCC(=O)Nc1ccc2[nH]c(=O)sc2c1 the Potency was inconclusive: 39.8 µM [signal inhibitor, single point].
With CCOC(=O)N1CCC(NC(=O)c2ccc3c(c2)N(Cc2ccc(F)cc2)C(=O)c2ccccc2S3=O)CC1 (configuration not stated) the IkBa stabilization activation was inconclusive: 0.611% [signal inhibitor].
For COc1ccc(CCNC(=O)c2nc(SCc3ccc(F)cc3)ncc2Cl)cc1OC, the IkBa stabilization activation was “inactive”.
For CS(=O)(=O)Nc1ccc(Cc2ccc(NS(C)(=O)=O)cc2)cc1, the IkBa stabilization activation was inconclusive: 2% [signal inhibitor].
For Cc1ccc(CCNC(=O)C(C)n2nc(C)c3c(C)n(-c4ccc(C)cc4)nc3c2=O)cc1 (configuration not stated), the IkBa stabilization activation was inconclusive: 1.56% [signal inhibitor].
In the case of CC(=O)c1ccc(NC(=O)COc2ccccc2-c2nc(C(C)C)no2)cc1, the IkBa stabilization activation is reported as inconclusive: 0.49% [signal inhibitor].
In the case of COc1ccccc1CCn1c(=O)c(-c2cccs2)nc2cncnc21, the IkBa stabilization activation is reported as inactive: -0.56% [at 11.4 µM, scaled: untreated 0%, proteasome inhibitor 100%].
For OCc1cn(-c2ccccc2)nc1-c1ccc2c(c1)OCCO2, the IkBa stabilization activation was inconclusive: 6.08% [signal inhibitor].
For O=C(c1ccc(Cl)cc1)N1CCC(c2nc(-c3cccs3)no2)CC1, the IkBa stabilization activation was inconclusive: 5.63% [signal inhibitor].
For O=C(COc1ccccc1)Nc1nnc2n1CCS2, the IkBa stabilization activation was inconclusive: 1.66% [signal inhibitor].
With FC(F)(F)c1ccccc1-c1ccc2ncnc(NCc3cccnc3)c2c1 the IkBa stabilization activation was inactive: 4.88% [at 11.4 µM, scaled: untreated 0%, proteasome inhibitor 100%].
In the case of CC(C)(C)C(=O)Cn1c(=O)n(CCCCCC(=O)NCc2ccccc2Cl)c(=O)c2sccc21, the IkBa stabilization activation is reported as inconclusive: 7.11% [signal inhibitor].
In the case of COc1cc(OC)cc(-c2nc3nc(C)c(CCC(=O)Nc4ccccc4)c(C)n3n2)c1, the IkBa stabilization activation is reported as inconclusive: 0.178% [signal inhibitor].
In the case of CCC(=O)Nc1ccc(C)cc1-c1nc2ccccc2n(CC(=O)c2ccc(C)cc2)c1=O, the IkBa stabilization activation is reported as inconclusive: 4.88% [signal inhibitor].
With CC(C)(C)OC(=O)N1CCC(c2c(C(=O)NCc3ccco3)cnn2-c2ccc(F)cc2F)CC1 the IkBa stabilization activation was inconclusive: 4.73% [signal inhibitor].
For CCCCNC(=O)Cn1c(=O)cc(C)c2c(C)nn(-c3cccc(Cl)c3C)c21, the IkBa stabilization activation was “inactive”.
In the case of Cc1noc2ncnc(N3CCCC(C(=O)Nc4cc(F)ccc4F)C3)c12 (configuration not stated), the IkBa stabilization activation is reported as inconclusive: 2.69% [signal inhibitor].
With COc1ccccc1NC(=O)C1=C(C)Nc2nc(-c3ccco3)nn2C1c1cccc(C)c1 (configuration not stated) the IkBa stabilization activation was inconclusive: 9.29% [signal inhibitor].
In the case of CCc1ccc(-n2c(=O)c3c(C)c(C(=O)N(C)C)sc3n(CC(=O)Nc3cc(Cl)ccc3C)c2=O)cc1, the IkBa stabilization activation is reported as “inactive”.
In the case of CCOCC(=O)Nc1ccc(F)c(F)c1, the IkBa stabilization activation is reported as inconclusive: 11.8% [signal inhibitor].
For O=C(O)[C@@H]1CSC2(CCSC2)N1 (some centres not stated), the Potency was inconclusive: 25.1 µM [signal inhibitor, partial curve].
With C=CCN=C(NC#N)SCC(=O)c1cccc(OC)c1 the IkBa stabilization activation was inconclusive: -4.75% [signal inhibitor].
For CN(C)/C=C/C(=O)c1nnn(C2CCCCC2)c1NC1CCCCC1, the IkBa stabilization activation was inconclusive: -4.05% [signal inhibitor].
With COc1ccc(CNC(=O)C2CCCN(C(=O)c3cnn(-c4ccc(F)cc4)c3-n3cccc3)C2)cc1 (configuration not stated) the IkBa stabilization activation was inconclusive: 2.62% [signal inhibitor].
In the case of CCOc1ccc(CC(=O)NCCc2sc(-c3cccc(F)c3)nc2C)cc1, the IkBa stabilization activation is reported as inconclusive: 2.33% [signal inhibitor].
With COc1ccc(NC(=O)c2cc(=O)c3cc(C)cc(C)c3o2)cc1 the IkBa stabilization activation was “inactive”.
For CCOc1cccc2sc(NC(=O)c3ccc(S(=O)(=O)N4CCCCC4)cc3)nc12, the IkBa stabilization activation was inconclusive: 2.41% [signal inhibitor].
In the case of CC(CNc1nc2ccccc2c2nc(-c3ccccc3)nn12)c1ccccc1 (configuration not stated), the IkBa stabilization activation is reported as “inactive”.
For Cc1nn(-c2ccccn2)c2c1C(c1ccsc1)C1=C(CCCC1=O)N2 (configuration not stated), the IkBa stabilization activation was inconclusive: 1.15% [signal inhibitor].
For CC1CCN(S(=O)(=O)c2ccc3c(ccc(=O)n3CC(=O)NCc3ccccc3)c2)CC1, the IkBa stabilization activation was inconclusive: 1.12% [signal inhibitor].
For CCCS(=O)(=O)c1nc(S(=O)(=O)c2ccc(C)cc2)c(NCC(C)C)s1, the IkBa stabilization activation was “inactive”.
In the case of Cc1ccc(CCNC(=O)c2oc(=O)c3ccccc3c2-c2ccc(C)cc2)cc1, the Potency is reported as inconclusive: 20 µM [signal inhibitor].
For CCc1ccc2oc(C(=O)NCC(c3ccc(Cl)cc3)N3CCOCC3)c(C)c2c1 (configuration not stated), the IkBa stabilization activation was inconclusive: -1.27% [signal inhibitor].
In the case of COc1cc2cc(C(c3nnnn3C3CCCCC3)N(C)C3CCCCC3)c(=O)[nH]c2cc1OC (configuration not stated), the IkBa stabilization activation is reported as inconclusive: 3.08% [signal inhibitor].
For Cc1ccc(-n2ncc3c(N4CCCCC4)ncnc32)cc1Cl, the Potency was inconclusive: 15.8 µM [signal inhibitor, partial curve].
For COc1cccc(NC(=O)c2nnn(CCc3ccccc3)c2N)c1, the IkBa stabilization activation was inconclusive: 12.8% [signal inhibitor].
For O=C(CSc1nc2ccccc2n1Cc1ccc(F)cc1)N1CCN(c2ccc(F)cc2)CC1, the IkBa stabilization activation was “inactive”.
With CNc1cc(-c2ccccc2CN(C)C)ncn1 the IkBa stabilization activation was inactive: -0.658% [at 11.4 µM, scaled: untreated 0%, proteasome inhibitor 100%].
In the case of Cc1ccc(NCc2nnc(SCc3ccc(C#N)cc3)n2Cc2ccco2)c(C)c1, the Potency is reported as inconclusive: 31.6 µM [signal inhibitor, partial curve].
With CC(=O)Nc1ccc(NC(=O)CCc2c(C)nc3c(c(C)nn3-c3ccc(C)cc3)c2C)cc1 the IkBa stabilization activation was inconclusive: 1.6% [signal inhibitor].
With O=C(c1scc2c1CCCC2)N1CCCCC1 the IkBa stabilization activation was “inactive”.
For Cc1ccc(C)c(NC(=O)CSc2nnc(CNC(=O)c3ccccc3)n2-c2ccccc2)c1, the IkBa stabilization activation was inconclusive: 0.851% [signal inhibitor].
With Cc1ccc(S(=O)(=O)CCc2nnc(NC(=O)c3cnccn3)s2)cc1 the IkBa stabilization activation was “inactive”.
For O=C(Nc1ccccc1Cl)c1ccc(F)c(S(=O)(=O)NCc2ccc(Cl)c(Cl)c2)c1, the IkBa stabilization activation was inconclusive: 1.9% [signal inhibitor].
For COc1ccc(CN2CCCN(CC(=O)Nc3cc(C)ccc3C)S2(=O)=O)cc1, the IkBa stabilization activation was inconclusive: 0.546% [signal inhibitor].
For CCOC(=O)c1sc(N2C(=O)c3oc4cc(C)c(C)cc4c(=O)c3C2c2ccc(C)cc2)nc1C (configuration not stated), the IkBa stabilization activation was “inactive”.
In the case of O=C(O)CCC(=O)c1ccc2ccc3cccc4ccc1c2c34, the Potency is reported as inconclusive: 1.26 µM [signal inhibitor, partial curve].
With COC(=O)CCC(=O)Oc1ccc(OC(=O)CCC(=O)OC)cc1 the IkBa stabilization activation was “inactive”.
For CCOC(=O)Cn1c(C2CC(=O)N(c3ccc(C)cc3)C2)nc2ccccc21 (configuration not stated), the IkBa stabilization activation was inconclusive: -0.13% [signal inhibitor].
In the case of COCCn1c(-c2ccccc2)c(C)n2c3c(=O)n(C)c(=O)n(C)c3nc12, the IkBa stabilization activation is reported as “inactive”.
For O=C(c1ccncc1)c1ccc(N2CCN(C3CC(=O)N(Cc4ccccc4)C3=O)CC2)cc1 (configuration not stated), the IkBa stabilization activation was inconclusive: -9.52% [signal inhibitor].
In the case of CC1=C(C(=O)OC2CCCC2)C(c2ccc(C)o2)C2=C(CC(c3cccs3)CC2=O)N1 (configuration not stated), the IkBa stabilization activation is reported as inconclusive: 0.529% [signal inhibitor].
For O=C(CSc1nnnn1-c1ccccc1)NC(=O)Nc1ccc2c(c1)OCCO2, the IkBa stabilization activation was “inactive”.
For Cc1cc(C)c(-c2cc(C(=O)Nc3c(C)n(C)n(-c4ccccc4)c3=O)[nH]n2)c(O)c1, the IkBa stabilization activation was inconclusive: 14.6% [signal inhibitor].
In the case of CCc1ccc(C2=CC(c3cccc(C)c3)n3c(nc4ccccc43)N2)cc1 (configuration not stated), the Potency is reported as inconclusive: 25.1 µM [signal inhibitor, partial curve].
With Cc1cccc(N(CC(=O)NCc2ccccc2)S(C)(=O)=O)c1C the IkBa stabilization activation was inconclusive: 1.17% [signal inhibitor].
In the case of Cc1ccc(C)c(NC(=O)Cn2cnc3c(oc4ccccc43)c2=O)c1, the IkBa stabilization activation is reported as inconclusive: 2.71% [signal inhibitor].
For Cc1cc(C)cc(-n2nnnc2SCC(=O)Nc2cccc(NC(=O)c3ccco3)c2)c1, the IkBa stabilization activation was inconclusive: 13.8% [signal inhibitor].
In the case of COc1ccc(CNC(=O)CSCc2nc(-c3ccccc3F)oc2C)cc1, the IkBa stabilization activation is reported as inconclusive: 2.79% [signal inhibitor].
